Test results reported in PubChem BioAssay AID1508642 (National Center for Advancing Translational Sciences (NCATS), 2021).
The campaign covered roughly 43,000 compounds. About 200 (0.47%) were called active. Inconclusive results (about 12%) are left out. Calls come from the whole dose curve; as a rule, active = well fitted cell-killing curve with a large enough effect; inconclusive = small, poorly fitted or top-dose-only effect, or effect the other way; inactive = flat fitted curve, though single readings scatter. Some of the results follow.

assay: Cell viability qHTS assay in S16 Pmp22-F2sN cells; details: S16 Pmp22-F2sN Schwann cells (luciferase reporters placed in the Pmp22 gene) viability, CellTiter-Glo, 24 h; series mostly up to 57.5 µM; activity change, negative = cytotoxicity: at the top concentration; note: nearly all actives have a fitted effect of over 65% in size
In short: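 S16 Schwann cells carrying the Pmp22-F2sN reporter, seeded in 1536-well format, were exposed to library compounds for 24 h at 37C. Viability was read as CellTiter-Glo luminescence after 15 min at room temperature.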
% is set by controls: 0 for no effect and ±100 for the full control effect.

| SMILES | activity change, negative = cytotoxicity |
| --- | --- |
| COc1ccc(-c2cc(C)no2)cc1S(=O)(=O)N1CCc2ccccc21 | inactive: 0.566% |
| CCCC(O)c1nc2ccccc2n1Cc1ccccc1OC (stereo unspecified) | inactive: -7.83% |
| COc1cc(NC(=O)CN2c3ccccc3S(=O)(=O)c3ccccc32)cc(OC)c1 | inactive: 5.09% |
| Cc1ccc(C(=O)CSc2nc(-c3ccccc3)nc3c2CCCC3)c(C)c1 | inactive: 0.824% |
| Cc1cccc(C(C)C)c1NC(=O)C1CCCN1S(=O)(=O)c1cccc2nsnc12 (stereo unspecified) | inactive: -7.62% |
| COCCNC(=O)CSc1nc(-c2cc(OC)c(OC)c(OC)c2)[nH]c1-c1ccc(Cl)cc1 | inactive: -24.6% |
| CCOCCCn1c(SCC(=O)OCC)nc2c(sc3ccccc32)c1=O | inactive: -11.3% |
| CCC1CN(C(=O)NCc2ccc(C)cc2)c2ccccc2O1 (stereo unspecified) | inactive: 3.11% |
| CC(C)c1ccc(N2C(=O)CS(=O)(=O)C23C(=O)N(Cc2cccc(F)c2)c2ccccc23)cc1 (stereo unspecified) | inactive: -0.604% |
| CCOc1ccc(-c2ncnn2-c2sc3c(c2C#N)CCCCC3)cc1 | inactive: -2.15% |
| CCCCNC(=O)C(Cc1ccccc1)NS(=O)(=O)c1ccc2c(c1)c(=O)n(C)c(=O)n2C (stereo unspecified) | inactive: -0.865% |
| CCn1c(=N)c(C(=O)NCc2ccccc2)cc2c(=O)n3cc(C)ccc3nc21 | inactive: 18.2% |
| Cc1oc(-c2ccc(C(=O)NCc3ccc(Cl)cc3)cc2)nc1CS(=O)(=O)c1ccccc1 | inactive: -11.3% |
| COc1ccc(Cn2ccc3nc(C)c(C(=O)Nc4cc(C)cc(C)c4)cc3c2=O)cc1 | inactive: 5.88% |
| Cc1nc2ccccc2c(=O)n1-c1ccc(NC(=O)c2cccc([N+](=O)[O-])c2)cc1 | inactive: 3% |
| CSc1ncc(C(=O)Nc2c(C)cccc2C)c(-c2ccccc2)n1 | inactive: 2.43% |
| COc1ccccc1CCNC(=O)c1ccc(-c2nc(CSc3ccc(C)cc3)c(C)o2)cc1 | inactive: -12.7% |
| Cc1ccc(C)c(NC(=O)c2cc(S(=O)(=O)N3CCCc4ccccc43)ccc2F)c1 | inactive: -5.08% |
| Cc1cc(C)c(OCC(=O)N(Cc2ccco2)Cc2ccco2)c(C)c1 | inactive: -16.2% |
| CCCCOc1cccc(C(=O)Nc2cccc(-c3nc4ncccc4o3)c2C)c1 | inactive: -6.2% |
| CCOC(=O)C1=C(C)NC(=O)NC1c1cn(-c2ccccc2)nc1-c1ccc(OCC)cc1 (stereo unspecified) | inactive: -3.42% |
| Cc1ccc(NC(=O)C2CCCN(c3ncnc4onc(-c5ccc(F)cc5)c34)C2)c(Cl)c1 (stereo unspecified) | inactive: 1.88% |
| Cc1cccc(N2CCN(C(=O)CN3C(=O)COc4ccc(S(=O)(=O)N5CCCCCC5)cc43)CC2)c1C | inactive: 1.61% |
| CSc1ncc(C(=O)N2CCN(c3cc(C)ccc3C)CC2)c(C)n1 | inactive: -14.1% |

| SMILES | activity change, negative = cytotoxicity |
| --- | --- |
| CCC(C)NC(=O)Cn1ccc2cc(S(=O)(=O)N3CCCCC3)ccc21 (stereo unspecified) | inactive: -0.523% |
| CCCCCSc1nnc(-c2ccc(Br)cc2)o1 | inactive: -0.966% |
| Cc1ccc(Cl)cc1-n1c(=O)c2sc3ccccc3c2n(Cc2ccccc2)c1=O | inactive: -0.866% |
| CCOc1cc(-c2nnc(SCC(=O)NC3CCCC3)nc2-c2ccc(OC)c(OCC)c2)ccc1OC | inactive: -27.2% |
| CC(C)c1ccc(-c2nc(C(N)=O)c3c(n2)n(-c2ccc4c(c2)OCO4)c(=O)n3C)cc1 | inactive: 16.6% |
| O=C(Nc1cccc(F)c1)[C@H](CSCc1ccccc1)N1Cc2ccccc2C1=O | inactive: 2.69% |
| CCOc1ccc(NC(=O)Cn2cc(S(=O)(=O)NC)c(S(=O)(=O)NC)c2)cc1 | inactive: 8.25% |
| COc1ccc(NC(=O)C2CCN(S(=O)(=O)c3ccc4[nH]c5c(c4c3)CCCCC5)CC2)cc1 | inactive: -3.27% |
| CC(C)CCN1C(=O)c2ccccc2CC1(C)C(=O)NC1CCC(C)CC1 (stereo unspecified) | inactive: 1.94% |
| O=C(CSc1nccn1C1CCCC1)Nc1ccc(C(F)(F)F)cc1 | inactive: -19.6% |
| Cc1ccc(CNC(=O)C2CCN(S(=O)(=O)c3ccc4[nH]c(=O)ccc4c3)CC2)cc1 | inactive: -2.21% |
| Cc1nc2nc[nH]n2c(=O)c1CCC(=O)Nc1ccc(F)cc1 | inactive: -9.05% |
| CCC(C)NC(=O)CSc1nc2cc3c(cc2c(=O)n1CCCCCC(=O)NCc1ccc2c(c1)OCO2)OCO3 (stereo unspecified) | inactive: -2.04% |
| CCOc1ccc(NC(=O)Cn2c(=O)n(-c3ccccc3)c(=O)c3ccc(C(=O)NCc4ccc5c(c4)OCO5)cc32)cc1 | inactive: -18.5% |
| Cc1ccccc1S(=O)(=O)Cc1ccc(C(=O)NC2CCC(C)CC2)o1 (stereo unspecified) | inactive: 1.5% |
| CC1(C)C(=O)N(CC(=O)Nc2cccc(F)c2)c2ccc(S(=O)(=O)N3CCCCC3)cc21 | inactive: -2.6% |
| Cc1nn(-c2ccccc2)c2c1N(CC(=O)N1CCN(c3ccc(F)cc3)CC1)C(=O)CS2 | inactive: -14% |
| COc1cccc2cc(C(=O)Nc3ccc(F)c(F)c3)c(=O)oc12 | inactive: 0.964% |
| O=C(Cn1c(=O)n(Cc2cccs2)c(=O)c2cccnc21)Nc1ccc(F)cc1 | inactive: -2.84% |
| Cc1cc(-c2ccc(C)c(S(=O)(=O)NC3CCCCC3)c2)on1 | inactive: -11.3% |
| CCOc1ccc(-n2ccnc2SCC(=O)Nc2nc3ccc(C)cc3s2)cc1 | inactive: 2.91% |
| Cc1ccc(C(=O)NC2=NC(c3ccc(C)cc3)CC(=O)N2)cc1 (stereo unspecified) | inactive: 4.66% |
| Cc1ccc2c(c1)-c1ncc(C(=O)c3ccccc3O)cc1CO2 | inactive: 8.08% |
| Cc1cc(C)cc(NC(=O)CSc2nc(-c3ccccc3)c3cc(F)ccc3n2)c1 | inactive: 15.4% |

| SMILES | activity change, negative = cytotoxicity |
| --- | --- |
| CCCCCOC(=O)CSc1ncnc2sc3c(c12)CCC(C)C3 (stereo unspecified) | inactive: -0.594% |
| CC(=O)c1ccc(NC(=O)c2cc3sccc3n2Cc2ccc(F)cc2)cc1 | inactive: 7.81% |
| Cc1cc(C)cc(NC(=O)c2cc(CN3CCCC3)on2)c1 | inactive: -3.03% |
| COc1ccccc1CNC(=O)CCC1N=C2c3ccccc3N=C(SCc3ccc(C)cc3C)N2C1=O (stereo unspecified) | inactive: -23.8% |
| COc1ccc(NC(=O)CN(c2cc(C)cc(C)c2)S(=O)(=O)c2c(C)noc2C)cc1Cl | inactive: -25.4% |
| Fc1cccc(-n2ncc3c2ncn2nc(Cc4ccccc4)nc32)c1 | inactive: 7.3% |
| Cc1ccc2nc3sc(C(=O)NCCCN(C)c4ccccc4)cc3cc2c1 | inactive: 20.6% |
| Cc1ccc(CNC(=O)CN2C(=O)COc3ccc(S(=O)(=O)Nc4ccccc4)cc32)cc1 | inactive: 3.07% |
| CC(C)(C)OC(=O)N1CCC(c2nnc(SCc3cccc(Cl)c3)o2)CC1 | inactive: -25.2% |
| COc1ccc(-c2nc(SCC(=O)Nc3ccc4c(c3)OCCO4)c(-c3ccc(C)cc3)[nH]2)cc1OC | inactive: -5.19% |
| COc1ccc(NC(=O)CSc2ccc3nc(-c4ccccc4)cn3n2)cc1OC | inactive: 2.55% |
| CC(C)NC(=O)c1nn(-c2ccccc2F)nc1CO | inactive: -0.708% |
| Cc1ccccc1Nc1c(-c2ccc(N3CCOCC3)cc2)nc2ccccn12 | inactive: -13.2% |
| COc1ccccc1NC(=O)CCCc1nnc2n(C)c(=O)c3sccc3n12 | inactive: -26.7% |
| CCOC(=O)c1cc(S(=O)(=O)NCc2ccc(C)cc2)[nH]n1 | inactive: 0.165% |
| O=C(Nc1ccc(Oc2ccccc2)cc1)C1CCN(S(=O)(=O)c2ccc(Cl)cc2)CC1 | inactive: 2.83% |
| CCOc1ccc(CCNC(=O)c2ccc3c(c2)c(C)c(C)n3Cc2ccccc2)cc1OCC | inactive: -20.5% |
| Cc1ccc(SCC(=O)Nc2ccc3oc(-c4ccccc4C)nc3c2)cc1 | inactive: 6.65% |
| COc1ccc(-n2c(=O)c3ccccc3n(CC(=O)Nc3ccccc3OC)c2=O)cc1 | inactive: -3.38% |
| COc1cc(OC)cc(C(=O)Nc2cc3c(cc2N2CCCC2)n(C)c(=O)c(=O)n3C)c1 | inactive: -0.609% |
| CSc1ccc(CCNC(=O)CCn2c(=O)c3cccn3c3ccc(F)cc32)cc1 | inactive: 18.1% |
| CCOC(=O)c1c(NC(=O)c2cc3ccccc3c(=O)o2)sc2c1CCC(C)C2 (stereo unspecified) | inactive: 1.07% |
| CC(=O)c1ccc(NC(=O)c2cnn(-c3cccc(F)c3)c2-n2cccc2)cc1 | inactive: -1.39% |
| COc1ccc(S(=O)(=O)c2c(O)c3ccc(C(=O)NCc4ccc(F)cc4)cc3[nH]c2=O)cc1 | inactive: 0.832% |

| SMILES | activity change, negative = cytotoxicity |
| --- | --- |
| Cc1ccc(CNC(=O)c2cc(C)nc3c2c(C)nn3-c2ccc(C)cc2)cc1 | inactive: 4.12% |
| Cc1ccc2c(CC(=O)Nc3c(C(=O)c4ccc(C)c(F)c4)oc4ccccc34)coc2c1 | inactive: 3.66% |
| CCOc1ccc(N2CC(NC(=O)c3cccs3)CC2=O)cc1 (stereo unspecified) | inactive: 11.4% |
| CCc1ccc(NC(=O)[C@H](Cc2ccccc2)N2Cc3ccccc3C2=O)cc1 | inactive: 2.3% |
| COc1cc(NC(=O)CCc2c(C)nn(-c3ccc4nnc(C)n4n3)c2C)cc(OC)c1OC | inactive: 1.94% |
| Cc1ccc(S(=O)(=O)n2nc(-c3ccccc3)nc2NCc2ccc(Cl)cc2)cc1 | inactive: 4.14% |
| O=C1CC(c2nc(-c3ccc(Cl)cc3)no2)CN1c1ccc2c(c1)OCCO2 (stereo unspecified) | inactive: 0.911% |
| O=C(CSc1nc2c([nH]c3ccccc32)c(=O)n1-c1ccccc1)N1CCc2ccccc21 | inactive: 13.3% |
| O=C(CSc1nccn1-c1ccc(Cl)cc1)Nc1ccc(Cl)c(Cl)c1 | inactive: -8.92% |
| COc1cc(NC(=O)N2c3ccccc3Sc3ccccc32)cc(OC)c1 | inactive: -16.7% |
| CCOC(=O)N1CCc2c(sc3c2c(=O)n(CCc2ccccc2)c(=O)n3CC(=O)Nc2ccc(C)cc2)C1 | inactive: 3.53% |
| O=C(NCc1cccc(Br)c1)c1cnn(-c2ccc(F)cc2)c1-n1cccc1 | inactive: 11.5% |
| CC(=O)c1ccc(NC(=O)c2cc(-c3ccc(C)s3)nc3ccccc23)cc1 | inactive: 23.5% |
| CCCOC(=O)c1c(NC(=O)C(C)Sc2nc(-c3ccccc3)cc(C(F)(F)F)n2)sc(C(=O)N(C)C)c1C (stereo unspecified) | inactive: -21.4% |
| CN1CCc2c(sc(NC(=O)CSc3ccccc3)c2-c2nc3ccccc3s2)C1 | inactive: 1.85% |
| Cc1cccc(N2CCN(C(=O)CN3C(=O)CSc4c3c(C)nn4-c3ccccc3)CC2)c1C | inactive: 24.9% |
| CCOC(=O)c1ccc(NC(=O)CSc2ccc3ccccc3n2)cc1 | inactive: -0.683% |
| COc1ccccc1C(=O)NCC(c1cccnc1)N1CCc2ccccc2C1 (stereo unspecified) | inactive: -14.7% |
| COC(=O)c1ccc(NC(=O)CCn2cnnn2)cc1 | inactive: -0.819% |
| CCN(CCCNC(=O)c1nn(-c2ccc(OC)cc2)c(=O)c2c1c1ccccc1n2C)c1ccccc1 | inactive: 8.09% |
| CCCCNC(=O)c1ccc2c(c1)ncn2-c1cc(OC)ccc1OC | inactive: -8.34% |
| Cc1c(Cl)cccc1-n1ncc(C(=O)Nc2ccc(Br)cc2F)c1C1CCNCC1 | inactive: -22% |
| O=C(Nc1ccccc1F)c1ccc2c(Cl)c3c(nc2c1)CCC3 | inactive: -0.217% |
| CCCNc1ccc(-c2nc(-c3ccccn3)no2)cc1[N+](=O)[O-] | inactive: 8.93% |
